11 compounds from the supplement of paper PMC7238544 can be followed below.

Details in all cases: priming compound concentration 100 µM
Assay [1] has as its system hAMSC donor 1. The assay is described as follows: Hoechst total cell count ratio vs vehicle control; higher = more cells (less toxicity).
In assay [2] the test system is hAMSC donor 2. Described as above.
Assay [3] deals with hAMSC donor 1. The experiment in a line: transgenic luciferase activity (RLU/mg protein) fold change vs vehicle control (ratio); higher = more transgene expression.
In assay [4] the test system is hAMSC donor 2. The description is as above.
The test system of assay [5] is hAMSC donor 1. The assay is described as follows: transfection efficiency (EGFP+ cells / Hoechst count) fold change vs vehicle control (ratio); hAMSC are human adipose-derived mesenchymal stem cells given an EGFP-luciferase plasmid by lipofection; higher = enhanced transfection.
The test system of assay [6] is hAMSC donor 2. Described as above.

Counter-ions that a name gives are not always drawn. ± gives the standard deviation of the averaged measurements. Some of the results follow.
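Wherever Hoechst total cell count ratio vs vehicle control is given: compound added 30 min before Lipofectamine 3000 lipoplex delivery, triplicate-well means expressed against DMSO vehicle control wells of the same 96-well plate.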
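Wherever transfection efficiency (EGFP+ cells / Hoechst count) fold change vs vehicle control is given: compounds added 30 min before Lipofectamine 3000 lipoplex transfection, triplicate means relative to DMSO vehicle wells on the same plate, luciferase RLU normalized to BCA total protein.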
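Wherever transgenic luciferase activity (RLU/mg protein) fold change vs vehicle control is given: compounds in DMSO added 30 min before Lipofectamine 3000 transfection of pEGFP-Luc in 96-well plates, values are means of triplicate wells over DMSO vehicle wells on the same plate.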

In the case of `COc1ccccc1N1CCN(CC(O)COc2cccc3ccccc23)CC1` (stereo unspecified) [Naftopidil], the “Hoechst total cell count ratio” value in the assay on hAMSC donor 1 [1] is 0.867 ± 0.038; in the assay with hAMSC donor 2 [2] it was 0.175 ± 0.037. The transgenic luciferase activity in the assay on hAMSC donor 1 [3] stood at 0.795 ± 0.14; with hAMSC donor 2 [4], 0.0786 ± 0.073. The transfection efficiency in the assay on hAMSC donor 1 [5] amounted to 0.651 ± 0.06; in the assay with hAMSC donor 2 [6], 0.215 ± 0.19.

Turning to `Brc1c(NC2=NCCN2)ccc2nccnc12` [Brimonidine], the figures for the “Hoechst total cell count ratio” value in the assay with hAMSC donor 1 [1] and with hAMSC donor 2 [2] were 0.869 ± 0.21 and 1.2 ± 0.093, respectively. In addition, the transgenic luciferase activity in the assay with hAMSC donor 1 [3] was found to be 8.51 ± 12; in the assay on hAMSC donor 2 [4], 1.48 ± 0.36. The transfection efficiency stood at 1.14 ± 0.21 with hAMSC donor 1 [5] and 1.23 ± 0.22 with hAMSC donor 2 [6].

Turning to `C=C1/C(=C\C=C2/CCC[C@]3(C)[C@@H]([C@H](C)/C=C/[C@@H](O)C4CC4)CC[C@@H]23)C[C@@H](O)C[C@@H]1O` [Calcipotriol], the “Hoechst total cell count ratio” value in the assay on hAMSC donor 1 [1] is 1.51 ± 0.12; in the assay on hAMSC donor 2 [2], 1.14 ± 0.07. Further, the figures for the transgenic luciferase activity in the assay on hAMSC donor 1 [3] and with hAMSC donor 2 [4] were 1.1 ± 0.55 and 1.54 ± 0.7, respectively. In addition, the transfection efficiency came out at 0.412 ± 0.14 in the assay with hAMSC donor 1 [5] and 0.798 ± 0.5 in the assay with hAMSC donor 2 [6].

With `CCN(CC)C(=S)SSC(=S)N(CC)CC` [Disulfiram], the “Hoechst total cell count ratio” value is 0.0973 ± 0.013 in the assay with hAMSC donor 1 [1] and 0.106 ± 0.047 in the assay with hAMSC donor 2 [2]. The transgenic luciferase activity with hAMSC donor 1 [3] came out at 0.0129 ± 0.0049; in the assay on hAMSC donor 2 [4], 0.000424 ± 0.00012. Moreover, the transfection efficiency was determined as 1.62 ± 0.83 in the assay with hAMSC donor 1 [5] and 0.209 ± 0.049 with hAMSC donor 2 [6].

As for `CN(C)CCC=C1c2ccccc2CCc2ccccc21` [Amitriptyline hydrochloride], the “Hoechst total cell count ratio” value in the assay on hAMSC donor 1 [1] stood at 1 ± 0.015; with hAMSC donor 2 [2], 0.905 ± 0.16. The transgenic luciferase activity with hAMSC donor 1 [3] worked out at 0.13 ± 0.11; in the assay with hAMSC donor 2 [4], 0.554 ± 0.17. Further, the transfection efficiency in the assay with hAMSC donor 1 [5] was determined as 0.471 ± 0.27; in the assay on hAMSC donor 2 [6], 0.676 ± 0.25.

On to `Clc1ccccc1CN1CCc2sccc2C1` [Ticlopidine hydrochloride], for which the results for the “Hoechst total cell count ratio” value in the assay on hAMSC donor 1 [1] and with hAMSC donor 2 [2] were 1.7 ± 0.41 and 1.11 ± 0.062, respectively. The transgenic luciferase activity with hAMSC donor 1 [3] was 0.723 ± 0.14; in the assay with hAMSC donor 2 [4], 0.44 ± 0.052. The transfection efficiency was determined as 1.2 ± 0.25 with hAMSC donor 1 [5] and 0.734 ± 0.025 with hAMSC donor 2 [6].

With `Clc1ccc(COC(Cn2ccnc2)c2ccc(Cl)cc2Cl)c(Cl)c1` (stereo unspecified) [Miconazole nitrate], the “Hoechst total cell count ratio” value is 0.237 ± 0.14 in the assay on hAMSC donor 1 [1] and 0.147 ± 0.042 with hAMSC donor 2 [2]. Also, the transgenic luciferase activity with hAMSC donor 1 [3] was found to be 0.0214 ± 0.032; in the assay with hAMSC donor 2 [4], 0.000615 ± 0.00064. Further, the transfection efficiency was 2.14 ± 1.2 in the assay on hAMSC donor 1 [5] and 0.0992 ± 0.17 in the assay on hAMSC donor 2 [6].

With `CC(C)(C)NCC(O)COc1cccc2c1CC(O)C(O)C2` (stereo unspecified) [Nadolol], the “Hoechst total cell count ratio” value was 1.07 ± 0.049 with hAMSC donor 1 [1] and 1.45 ± 0.29 with hAMSC donor 2 [2]. Besides, the transgenic luciferase activity in the assay with hAMSC donor 1 [3] was 0.649 ± 0.095; with hAMSC donor 2 [4] it was 0.737 ± 0.079. For the same compound, the transfection efficiency was 1.05 ± 0.019 in the assay on hAMSC donor 1 [5] and 0.793 ± 0.12 with hAMSC donor 2 [6].

Consider `O=C(O)/C=C/c1ccc(Cn2ccnc2)cc1` [Ozagrel hydrochloride], for which the figures for the “Hoechst total cell count ratio” value in the assay with hAMSC donor 1 [1] and in the assay on hAMSC donor 2 [2] were 1.21 ± 0.13 and 1.18 ± 0.018, respectively. Further, the transgenic luciferase activity with hAMSC donor 1 [3] was 0.266 ± 0.24; in the assay on hAMSC donor 2 [4], 0.606 ± 0.088. Besides, the transfection efficiency in the assay on hAMSC donor 1 [5] came to 1.17 ± 0.14; in the assay on hAMSC donor 2 [6], 0.803 ± 0.1.

Consider `CN[C@@H]1[C@H](O)[C@H](NC)[C@H]2O[C@@]3(O)C(=O)C[C@@H](C)O[C@H]3O[C@@H]2[C@H]1O` [Spectinomycin], for which the “Hoechst total cell count ratio” value in the assay on hAMSC donor 1 [1] came to 1.39 ± 0.051; in the assay with hAMSC donor 2 [2], 1.11 ± 0.089. For the same compound, the transgenic luciferase activity came to 0.857 ± 0.19 in the assay with hAMSC donor 1 [3] and 0.675 ± 0.14 with hAMSC donor 2 [4]. Moreover, the transfection efficiency with hAMSC donor 1 [5] stood at 1.25 ± 0.22; in the assay on hAMSC donor 2 [6] it was 0.881 ± 0.082.

Regarding `CC(C)C[C@H](NC(=O)[C@@H](COC(C)(C)C)NC(=O)[C@H](Cc1ccc(O)cc1)NC(=O)[C@H](CO)NC(=O)[C@H](Cc1c[nH]c2ccccc12)NC(=O)[C@H](Cc1cnc[nH]1)NC(=O)[C@@H]1CCC(=O)N1)C(=O)N[C@@H](CCCNC(=N)N)C(=O)N1CCC[C@H]1C(=O)NNC(N)=O` [Goserelin acetate], the “Hoechst total cell count ratio” value in the assay on hAMSC donor 1 [1] came out at 1.06 ± 0.021; in the assay on hAMSC donor 2 [2], 1.44 ± 0.38. Further, the transgenic luciferase activity stood at 0.907 ± 0.47 with hAMSC donor 1 [3] and 2.64 ± 0.66 in the assay on hAMSC donor 2 [4]. The transfection efficiency with hAMSC donor 1 [5] was 0.986 ± 0.22; with hAMSC donor 2 [6], 1.27 ± 0.054.
